From publication PMC4336329 (PLoS ONE, 2015)
Screen size: about 310,000 compounds; about 2,200 (0.71%) showed an effect of 50% or more. Effects have a minus sign here. The list shows a part of the results.

Each compound was assayed against human ether-à-go-go-related gene (hERG) potassium channel (human, UniProt Q12809) (assay: primary screen, population patch clamp on CHO cells stably expressing hERG).
human ether-à-go-go-related gene (hERG) potassium channel, sequence (Q12809 whole entry, looked up): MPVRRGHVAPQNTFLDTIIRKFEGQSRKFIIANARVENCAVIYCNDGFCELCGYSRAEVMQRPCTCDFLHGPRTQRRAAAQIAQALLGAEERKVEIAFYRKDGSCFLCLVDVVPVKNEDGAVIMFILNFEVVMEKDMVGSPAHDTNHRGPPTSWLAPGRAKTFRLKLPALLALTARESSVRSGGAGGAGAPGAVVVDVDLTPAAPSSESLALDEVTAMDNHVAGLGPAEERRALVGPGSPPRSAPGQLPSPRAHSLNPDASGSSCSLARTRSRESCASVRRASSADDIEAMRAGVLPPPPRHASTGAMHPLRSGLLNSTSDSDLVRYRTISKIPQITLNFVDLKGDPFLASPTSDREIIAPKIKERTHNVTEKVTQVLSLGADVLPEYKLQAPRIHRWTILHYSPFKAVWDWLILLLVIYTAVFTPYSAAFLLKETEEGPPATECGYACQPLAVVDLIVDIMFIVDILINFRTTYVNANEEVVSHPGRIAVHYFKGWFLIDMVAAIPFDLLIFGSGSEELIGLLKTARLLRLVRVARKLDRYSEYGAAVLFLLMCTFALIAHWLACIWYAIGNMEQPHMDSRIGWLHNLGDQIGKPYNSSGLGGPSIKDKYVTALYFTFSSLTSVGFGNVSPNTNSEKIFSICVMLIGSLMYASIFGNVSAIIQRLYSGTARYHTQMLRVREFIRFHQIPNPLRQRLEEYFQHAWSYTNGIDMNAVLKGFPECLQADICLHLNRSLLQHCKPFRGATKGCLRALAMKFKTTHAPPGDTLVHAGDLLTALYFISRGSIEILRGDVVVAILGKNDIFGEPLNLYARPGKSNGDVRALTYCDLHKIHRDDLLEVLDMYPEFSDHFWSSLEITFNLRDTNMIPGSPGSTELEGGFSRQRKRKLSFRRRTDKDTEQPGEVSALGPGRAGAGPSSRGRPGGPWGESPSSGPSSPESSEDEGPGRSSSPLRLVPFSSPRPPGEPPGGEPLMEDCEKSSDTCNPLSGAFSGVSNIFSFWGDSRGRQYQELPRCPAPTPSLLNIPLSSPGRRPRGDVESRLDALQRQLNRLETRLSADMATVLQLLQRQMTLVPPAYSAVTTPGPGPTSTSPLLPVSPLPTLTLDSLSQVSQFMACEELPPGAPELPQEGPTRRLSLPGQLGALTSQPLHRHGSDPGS

Point of comparison: `Cc1nn(Cc2c(F)c(F)c(F)c(F)c2F)c(C)c1NC(=O)c1nn(C)c(C)c1Br`, “hERG current change (%, negative = inhibition) at 1uM” value -6.03%. Against it:
- CCC(=O)N1CCc2cc(S(=O)(=O)NCCN3CCCCC3CC)ccc21 (centres unmarked) — lower, -10.7%
- CCC1CCCCN1CCCNC(=O)c1ccc(CS(=O)(=O)Cc2ccc(Cl)cc2)o1 (centres unmarked) — higher, 12%
- COc1cc(C(C)=O)ccc1OC(=O)C(C)N1C(=O)c2ccccc2C1=O (centres unmarked) — higher, 10.7%
- C/[N+]([O-])=C\c1coc2ccccc2c1=O — higher, 4.01%
- CC(C)Cn1c(O)c2ccc(C(=O)N=NC(=O)c3cccnc3)cc2c1O — higher, 13.1%
- COCCN(C(=O)/C=C/c1cccc([N+](=O)[O-])c1)c1c(N)n(Cc2ccccc2)c(=O)[nH]c1=O — higher, 5.6%
- Cc1ccc(-c2nnc(CN3CCN(C)CC3)o2)cc1 — higher, 7.19%
- O=C(Nc1cccc(S(=O)(=O)N2CCOCC2)c1)c1cnccn1 — higher, -2.2%
- CCOc1ccc(CCNC(=O)C2=C(C)C(=O)OC23CCCCC3)cc1OCC — higher, 16.9%
- Cl.OCCCNCc1ccc(-c2ccccc2)cc1 — higher, 6.55%
- COc1ccc(OCC(O)Cn2c(N)nc3c2c(=O)[nH]c(=O)n3C)cc1 (centres unmarked) — higher, 9.31%
- O=C(COc1ccccc1)NCC(=O)N/N=C/c1cc(Br)ccc1OCc1ccccc1 — higher, 10.1%
- COc1cc2c(cc1OC)C(c1c(O)n(CCc3ccccc3)c(=S)[nH]c1=O)NCC2 (centres unmarked) — higher, 13%
- O=C1NC(=O)N(CCNc2ncc(C(F)(F)F)cc2Cl)C(=O)C1Cc1ccc(Cl)cc1 (centres unmarked) — higher, 14.1%
- COc1ccc(Br)cc1C(=O)Nc1ccc(N2CCCC2)cc1 — higher, 19.1%
- COCCC(=O)N1CCC(Oc2ccc(C(=O)N3CCCC(OC)C3)cc2)CC1 (centres unmarked) — higher, 5.47%
- Cc1ccc(S(=O)(=O)N2CCC(C(=O)Nc3ccc(C(C)C)cc3)CC2)cc1 — higher, 0.0163%
- O=C(NCC(=O)N1CCN(c2ccccc2)CC1)c1cccs1 — higher, 1.14%
- COc1ccc(NC(C)=O)cc1CNC(=O)COc1c(C)c(C)cc(C)c1C — higher, 13.6%
- CCN1CCN(C(=O)c2cc3cc4cc(OC)ccc4nc3s2)CC1 — higher, -4.27%
- COC(=O)c1cc(NC(=O)c2cccc(Cl)c2)c(=O)oc1/C=C/Nc1cc(C)cc(C)c1 — higher, 13.2%
- CN(Cc1ccccc1)S(=O)(=O)c1ccc(OCC(=O)NCc2cccnc2)cc1 — higher, 14.9%
- O=S(=O)(Nc1cc(F)ccc1F)c1cccc2nsnc12 — higher, 14.5%
- Cc1ccc(-c2nnc(SCC(=O)NC3CCCc4ccccc43)n2N)cc1 (centres unmarked) — higher, 0.864%
- Cc1ccc(S(=O)(=O)N(C)Cc2ccc(C(=O)NN=C(CC(C)C)CC(C)C)cc2)cc1 — higher, 7.58%
- CN1CCN(C(=S)c2ccc(-c3cccc(Cl)c3Cl)o2)CC1 — higher, 7.56%
- COc1ccc2nc(NC(=O)C3CC(=O)N(c4ccccc4)C3)sc2c1 (centres unmarked) — higher, 4.67%
- O=C(CSc1nnc(-c2ccccc2)o1)NC1CC1 — higher, 13.6%
- Cc1ccc(C)c(NC(=O)Cn2nc([N+](=O)[O-])c(Br)c2C)c1 — higher, 15.8%
- COc1cccc(C(=O)Oc2cc(C)[nH]c(=O)c2[N+](=O)[O-])c1OC — higher, 11.9%
- COc1ccccc1C(=O)NC(=S)Nc1ccc(Cc2ccncc2)cc1 — higher, 14.5%
- CCOC(=O)c1sc2nc(C)nc(Nc3ccccc3)c2c1C.Cl — higher, 11.3%
- O=C(N/C(=C/c1cn(-c2ccccc2)nc1-c1ccccc1)C(=O)N1CCOCC1)c1ccc(Cl)cc1Cl — higher, 24.2%
- CC1CN(C(=O)N2CCOCC2)CCN1C(=O)N1CCOCC1 (centres unmarked) — higher, 9.95%
- CS(=O)(=O)N(CC(=O)N1CCc2ccccc2C1)c1ccccc1F — higher, 7.9%
- O=S(=O)(c1cccc(-c2nc3ccccc3s2)c1)N1CCCC1 — higher, 2.25%
- CCCC(=O)c1c(NCCO)cc(C)oc1=O — higher, 6.13%
- CS(=O)(=O)c1cccc(C(=O)OCC(=O)NCc2cccs2)c1 — higher, 8.1%
- Cc1ccc(S(=O)(=O)N(C)C)cc1NC(=O)Cn1c(CN2CCOCC2)nc2ccccc2c1=O — higher, 12.6%
- O=c1[nH]c2cc3c(cc2cc1CN(Cc1nnnn1CC1CCCO1)C1CCCC1)OCO3 (centres unmarked) — higher, 4.94%
- Cc1cc(-c2ccc(Cl)cc2)n2nc(N)nc2n1 — higher, 7.56%
- COc1ccc(N/C=C(\C#N)S(=O)(=O)c2ccc(OC)cc2)cc1 — higher, 13.8%
- Cc1ccc(C(=O)NCC(=O)OCC(=O)NC2CCS(=O)(=O)C2)cc1C (centres unmarked) — higher, 3.28%
